# Experimental data taken from patent publication US11541030B2, “Methods for the treatment of inflammation associated with infection” (NOXOPHARM LIMITED, priority 2020, dated 2023).
# Tested on: Semliki Forest virus (SFV)
# Conditions: 10 μM IDX 72 hours, SFV MOI of 2, 24 hours
smiles,measurement,value
"Oc1ccc(C2=Cc3ccc(O)cc3OC2)cc1 [IDX, 2H-1-Benzopyran-7-0,1,3-(4-hydroxyphenyl)]",sensitisation of cells to SFV infection,did not sensitize
